This passage reports binding signal results from PMC5700166.

Holding throughout (assay): protein-binding microarray (PBM)
Holding throughout (conditions): PBM: ~300 nM protein, 6 mM HEPES pH 7.8, 80 mM KCl, 0.5 mM EDTA, 0.5 mM EGTA, 6% glycerol, 35 ng/ul poly-dIdC, 1% milk, 1 h, room temperature; Ap Aiptasia and Nv Nematostella (sea anemones) / Co Capsaspora / Aq Amphimedon (sponge) / Dm Drosophila / Hu human; RHD is the Rel homology domain; high values mean tight binding; most listed sequences are background and not binding sites; double strand, one strand shown

The target of experiment [1] is T1, GST-Nv-NF-kB (Cys allele) (UniProt E5G601).
T1 sequence: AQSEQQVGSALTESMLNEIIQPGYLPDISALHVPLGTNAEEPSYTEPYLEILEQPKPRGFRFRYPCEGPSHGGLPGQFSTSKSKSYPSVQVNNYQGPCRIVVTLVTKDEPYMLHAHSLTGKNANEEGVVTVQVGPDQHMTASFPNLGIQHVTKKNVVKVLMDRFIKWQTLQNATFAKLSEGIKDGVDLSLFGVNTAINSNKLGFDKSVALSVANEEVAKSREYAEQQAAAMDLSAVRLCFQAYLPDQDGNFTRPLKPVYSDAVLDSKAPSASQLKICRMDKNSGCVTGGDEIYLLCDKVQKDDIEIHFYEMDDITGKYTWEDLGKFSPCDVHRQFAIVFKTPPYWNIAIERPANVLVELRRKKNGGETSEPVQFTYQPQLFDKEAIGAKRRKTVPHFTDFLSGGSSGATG

In experiment [2] the target is T2, GST-Dm-Relish (UniProt Q94527).
T2 sequence: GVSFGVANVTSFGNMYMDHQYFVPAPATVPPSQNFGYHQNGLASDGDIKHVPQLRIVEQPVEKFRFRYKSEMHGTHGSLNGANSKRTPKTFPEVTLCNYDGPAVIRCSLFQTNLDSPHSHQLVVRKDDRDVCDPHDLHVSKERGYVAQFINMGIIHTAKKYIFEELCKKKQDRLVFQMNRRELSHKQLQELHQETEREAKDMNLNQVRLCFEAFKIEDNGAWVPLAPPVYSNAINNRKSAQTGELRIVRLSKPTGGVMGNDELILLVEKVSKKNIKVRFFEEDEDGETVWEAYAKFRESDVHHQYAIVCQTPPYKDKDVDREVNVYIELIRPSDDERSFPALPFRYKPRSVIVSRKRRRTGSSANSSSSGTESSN

Experiment [3] deals with T3, GST-Co-NF-kB (UniProt F1ARL5).
T3 sequence: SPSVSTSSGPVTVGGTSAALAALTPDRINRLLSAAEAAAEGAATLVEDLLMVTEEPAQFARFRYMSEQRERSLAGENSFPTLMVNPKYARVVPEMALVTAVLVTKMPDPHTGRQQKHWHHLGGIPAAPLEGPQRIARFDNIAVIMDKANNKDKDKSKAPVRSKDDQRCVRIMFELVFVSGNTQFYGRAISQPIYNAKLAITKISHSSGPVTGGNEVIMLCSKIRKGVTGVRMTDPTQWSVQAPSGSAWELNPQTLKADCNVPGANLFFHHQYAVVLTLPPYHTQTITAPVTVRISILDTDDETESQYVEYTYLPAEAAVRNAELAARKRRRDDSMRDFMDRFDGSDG

Only a part is listed here, and it is no random draw. The list includes weakly bound sequences.

For the sequence “CCGATTAACATCACGGTTTTCCCTGATGTTAATCGGGTCTTGATTCGCTTGACGCTGCTG”, the binding signal in experiment [1] was 5.02 z-score; in experiment [2], 4.43 z-score.
For the sequence “CCGATTAACATCAAGGGCATCCCTGATGTTAATCGGGTCTTGATTCGCTTGACGCTGCTG”, the binding signal was 0.664 z-score in experiment [1], 0.109 z-score in experiment [3] and 5.6 z-score in experiment [2].
For “CCGATTAACATCACAGATTTCCCTGATGTTAATCGGGTCTTGATTCGCTTGACGCTGCTG”, the binding signal in experiment [1] is 5.4 z-score; in experiment [2], 2.66 z-score.
For the sequence “CCGATTAACATCACCCCGTCCCCTGATGTTAATCGGGTCTTGATTCGCTTGACGCTGCTG”, the binding signal was 3.83 z-score in experiment [1], 3.98 z-score in experiment [3] and 2.65 z-score in experiment [2].
With “CCGATTAACATCAGGGGAACCACTGATGTTAATCGGGTCTTGATTCGCTTGACGCTGCTG”, the binding signal worked out at 6.92 z-score in experiment [1] and 10.4 z-score in experiment [2].
Take “CCGATTAACATCAGGAGAGTACCTGATGTTAATCGGGTCTTGATTCGCTTGACGCTGCTG”: the results for the binding signal in experiment [1], in experiment [3] and in experiment [2] were 2.32 z-score, -0.466 z-score and 2.54 z-score, respectively.
The matching figures for “CCGATTAACATCAGGAACCTCCCTGATGTTAATCGGGTCTTGATTCGCTTGACGCTGCTG”: 2.34 z-score, 0.526 z-score and 0.94 z-score.
On to “CCGATTAACATCAATTCCCCTGATGATGTTAATCGGGTCTTGATTCGCTTGACGCTGCTG”, for which the binding signal in experiment [1] amounted to 7.45 z-score; in experiment [2], 3.81 z-score.
On to “CCGATTAACATCAATTCCCACCCTGATGTTAATCGGGTCTTGATTCGCTTGACGCTGCTG”, for which the binding signal in experiment [1] is 2.6 z-score; in experiment [3], 3.21 z-score; in experiment [2] it was 2.33 z-score.
On to “CCGATTAACATCAGGAAAGCACCTGATGTTAATCGGGTCTTGATTCGCTTGACGCTGCTG”, for which the binding signal in experiment [1] was 4.19 z-score; in experiment [3] it was -0.611 z-score; in experiment [2], 6.13 z-score.
The matching figures for “CCGATTAACATCACGTAAACCCCTGATGTTAATCGGGTCTTGATTCGCTTGACGCTGCTG”: 2.68 z-score, 1.08 z-score and 6.43 z-score.
The matching figures for “CCGATTAACATCAGAAAAGTACCTGATGTTAATCGGGTCTTGATTCGCTTGACGCTGCTG”: 6.4 z-score, 0.588 z-score and 8.45 z-score.
The matching figures for “CCGATTAACATCACGGAAACACCTGATGTTAATCGGGTCTTGATTCGCTTGACGCTGCTG”: 0.259 z-score, 0.506 z-score and 1.78 z-score.
As to “CCGATTAACATCAGGGGATTATATGATGTTAATCGGGTCTTGATTCGCTTGACGCTGCTG”, the binding signal in experiment [1] came to 9.17 z-score; in experiment [3], 4.18 z-score; in experiment [2], 6.72 z-score.
For the sequence “CCGATTAACATCAACGGGTCCCTTGATGTTAATCGGGTCTTGATTCGCTTGACGCTGCTG”, the binding signal in experiment [1] was 1.84 z-score; in experiment [3] it was -0.487 z-score; in experiment [2], 0.232 z-score.
The matching figures for “CCGATTAACATCAGACATTCCCATGATGTTAATCGGGTCTTGATTCGCTTGACGCTGCTG”: 2.27 z-score, 1.37 z-score and 0.989 z-score.
For “CCGATTAACATCACAAACTTCCCTGATGTTAATCGGGTCTTGATTCGCTTGACGCTGCTG”, the binding signal in experiment [1] came out at 4.26 z-score; in experiment [3], 2.51 z-score; in experiment [2], 3.48 z-score.
Take “CCGATTAACATCAGGACTTGCCCTGATGTTAATCGGGTCTTGATTCGCTTGACGCTGCTG”: the binding signal is 1.11 z-score in experiment [1], -0.733 z-score in experiment [3] and -0.096 z-score in experiment [2].
The like results for “CCGATTAACATCAGGGGGGGTACTGATGTTAATCGGGTCTTGATTCGCTTGACGCTGCTG” were, in that order, 3.45 z-score, 4.54 z-score and 5.04 z-score.
The matching figures for “CCGATTAACATCACCCTCGAGGGTGATGTTAATCGGGTCTTGATTCGCTTGACGCTGCTG”: 0.756 z-score, 1.1 z-score and 1.08 z-score.
As to “CCGATTAACATCAGGGCTTCCCATGATGTTAATCGGGTCTTGATTCGCTTGACGCTGCTG”, the binding signal was 0.817 z-score in experiment [1], 1.01 z-score in experiment [3] and 8.36 z-score in experiment [2].
For “CCGATTAACATCAAAAAGTTCCCTGATGTTAATCGGGTCTTGATTCGCTTGACGCTGCTG”, the figures for the binding signal in experiment [1], in experiment [3] and in experiment [2] were 5.3 z-score, 4.37 z-score and 6.54 z-score, respectively.
The like results for “CCGATTAACATCAGTCCCACAGATGATGTTAATCGGGTCTTGATTCGCTTGACGCTGCTG” were, in that order, 1.55 z-score, 0.912 z-score and 0.415 z-score.
In the case of “CCGATTAACATCATCTGGGAAAATGATGTTAATCGGGTCTTGATTCGCTTGACGCTGCTG”, the binding signal in experiment [1] was 2.91 z-score; in experiment [3], 3.73 z-score; in experiment [2] it was -0.237 z-score.
As for “CCGATTAACATCATACCCCCCCATGATGTTAATCGGGTCTTGATTCGCTTGACGCTGCTG”, the binding signal in experiment [1] was found to be 2.65 z-score; in experiment [2] it was 3.98 z-score.
On to “CCGATTAACATCAGGCCTTCCCCTGATGTTAATCGGGTCTTGATTCGCTTGACGCTGCTG”, for which the binding signal in experiment [1] stood at 6.79 z-score; in experiment [3] it was 2.84 z-score; in experiment [2], 9.6 z-score.
The matching figures for “CCGATTAACATCAGGCAACTCCCTGATGTTAATCGGGTCTTGATTCGCTTGACGCTGCTG”: 2.44 z-score, 1.09 z-score and 0.37 z-score.
As to “CCGATTAACATCAGGTCGGGAAATGATGTTAATCGGGTCTTGATTCGCTTGACGCTGCTG”, the values for the binding signal in experiment [1], in experiment [3] and in experiment [2] were 2.6 z-score, 3.1 z-score and 0.39 z-score, respectively.
The like results for “CCGATTAACATCAAAACCCCCCGTGATGTTAATCGGGTCTTGATTCGCTTGACGCTGCTG” were, in that order, 6.29 z-score, 5.04 z-score and 10.2 z-score.
The like results for “CCGATTAACATCAGATTTCTCCCTGATGTTAATCGGGTCTTGATTCGCTTGACGCTGCTG” were, in that order, 3.11 z-score, 2.92 z-score and 0.504 z-score.
Consider “CCGATTAACATCAGGGGATTCACTGATGTTAATCGGGTCTTGATTCGCTTGACGCTGCTG”, for which the binding signal came to 7.31 z-score in experiment [1], 3.35 z-score in experiment [3] and 10.3 z-score in experiment [2].
